# From the BET-seq Pho4 binding data (Le et al. 2018)
# This is one part of the list. Values were computed here from the reads of four pooled replicates and scatter widely.
# Biological target: T1, Pho4 (S. cerevisiae) (UniProt P07270)
# T1 sequence: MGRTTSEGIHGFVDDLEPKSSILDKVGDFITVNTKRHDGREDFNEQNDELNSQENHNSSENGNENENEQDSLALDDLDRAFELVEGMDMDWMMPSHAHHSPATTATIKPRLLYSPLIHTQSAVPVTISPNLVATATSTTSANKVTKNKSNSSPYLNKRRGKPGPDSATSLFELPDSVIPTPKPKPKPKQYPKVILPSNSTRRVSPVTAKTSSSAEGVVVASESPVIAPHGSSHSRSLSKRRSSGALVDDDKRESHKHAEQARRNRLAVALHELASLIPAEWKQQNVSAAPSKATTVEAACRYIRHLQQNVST
# Test: relative binding free energy (BET-seq); higher = weaker binding
# Conditions: reference: library average
row,Sequence,relative binding free energy
1,TCGTTCACGTGGTAGG,0.27 kcal/mol
2,GTGCACACGTGTGTGG,0.08 kcal/mol
3,TGAGGCACGTGAAATT,0.37 kcal/mol
4,ATTCACACGTGGAGGG,0.09 kcal/mol
5,CGTTCCACGTGGGTGG,-0.16 kcal/mol
6,TTAGGCACGTGGTGGT,-0.14 kcal/mol
7,TTTTACACGTGATTAT,0.14 kcal/mol
8,ATTTGCACGTGAGACG,0.23 kcal/mol
9,CAGATCACGTGAGTTG,0.36 kcal/mol
10,TTATACACGTGTGCGG,0.11 kcal/mol
11,ACGTTCACGTGGCGGG,0.06 kcal/mol
12,GGGCACACGTGGTTTG,0.07 kcal/mol
13,GTTAGCACGTGTCGTT,0.12 kcal/mol
14,GGTAACACGTGGGCTA,0.02 kcal/mol
15,GTGTGCACGTGGGATC,-0.13 kcal/mol
16,GAAGTCACGTGAATTT,0.21 kcal/mol
17,AAGCGCACGTGTAGGG,-0.16 kcal/mol
18,AGATTCACGTGTACGG,0.15 kcal/mol
19,AGATTCACGTGGTTAA,0.23 kcal/mol
20,TTTAACACGTGATATG,0.21 kcal/mol
21,AGATACACGTGAGGTG,0.21 kcal/mol

row,Sequence,relative binding free energy
1,GTTGACACGTGTGAAG,0.12 kcal/mol
2,TGATACACGTGTTTCG,0.04 kcal/mol
3,GGTTGCACGTGATGAG,0.16 kcal/mol
4,AATGTCACGTGAGCAT,0.31 kcal/mol
5,GTAAACACGTGGTGTA,-0.01 kcal/mol
6,TCGTGCACGTGTTATG,-0.03 kcal/mol
7,GTGAGCACGTGAAGGA,0.12 kcal/mol
8,TTCTACACGTGAATGT,0.27 kcal/mol
9,TTAAACACGTGTTGTG,-0.03 kcal/mol
10,ATTGTCACGTGCAGGT,0.14 kcal/mol
11,AAGGACACGTGCAGGT,-0.02 kcal/mol
12,GGTGTCACGTGGTCGC,0.12 kcal/mol
13,ATGAGCACGTGACGGG,0.08 kcal/mol
14,ATTCGCACGTGGGTGC,-0.25 kcal/mol
15,TGACTCACGTGTGGGT,0.18 kcal/mol
16,TGGGGCACGTGGCTGG,-0.14 kcal/mol
17,TAGGGCACGTGGGCCT,-0.33 kcal/mol
18,TTACTCACGTGAGAGT,0.39 kcal/mol
19,ATCGTCACGTGGTTAA,0.16 kcal/mol
20,TATCACACGTGGGGGG,0 kcal/mol
21,CGAGTCACGTGCGTGT,-0.09 kcal/mol

row,Sequence,relative binding free energy
1,TCGGTCACGTGTAAGT,0.2 kcal/mol
2,ATCCTCACGTGGTGTT,0.06 kcal/mol
3,CATTCCACGTGTGGTT,0.11 kcal/mol
4,GTGGACACGTGTAGGA,0.11 kcal/mol
5,TGTCACACGTGTATGG,0.03 kcal/mol
6,AGTGTCACGTGTCAGG,0.09 kcal/mol
7,CGTGACACGTGGAAGT,0.07 kcal/mol
8,ATAGTCACGTGTAGTG,0.06 kcal/mol
9,ATGTGCACGTGTCGTT,-0.02 kcal/mol
10,AGGGTCACGTGGGTAT,0 kcal/mol
11,CGTTGCACGTGATAGG,0.01 kcal/mol
12,TTGTGCACGTGGCTAC,0.05 kcal/mol
13,GTGATCACGTGTGAGG,0.15 kcal/mol
14,TGTCGCACGTGTTGGG,0.01 kcal/mol
15,TTTCGCACGTGCGTTA,-0.11 kcal/mol
16,TGGTCCACGTGACCGG,0.31 kcal/mol
17,TCTTGCACGTGTGGAG,0.2 kcal/mol
18,TGTATCACGTGGCATA,-0.01 kcal/mol
19,TTGCGCACGTGCGTTA,-0.01 kcal/mol
20,TGGCGCACGTGATGTG,0.11 kcal/mol
21,ATTTTCACGTGTACTT,0.22 kcal/mol
